# Among all 360,000 compounds or so, about 16,000 (4.4%) were called active. Inconclusive means that the source gave no clear call. Such entries were picked first, then a sample of the others. Calls come from the whole dose curve; as a rule, active = well fitted inhibition curve with a large enough effect; inconclusive = small, poorly fitted or top-dose-only effect; inactive = no such curve, though single readings can be large or run the other way. Where the call is inconclusive, the potency comes from a doubtful curve fit.
# Biological target: Bromodomain adjacent to zinc finger domain protein 2B (Homo sapiens) (UniProt Q9UIF8)
# Experiment: qHTS Assay for Inhibitors of BAZ2B; note: nearly all actives have a fitted effect of over 60% in size
# Details: AlphaScreen BAZ2B-H3K14Ac peptide displacement; activity change, negative = inhibition: at 114 µM (top of the series)
# How it was run: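 BAZ2B 50 nM plus b-H3(5-23)K14Ac 50 nM, PBS pH 7.4/0.01% Tween-20, 30 min RT; compound added (max 110 uM), 30 min RT; streptavidin donor/Ni-chelate acceptor beads 10 ug/mL final, 20 min dark; AlphaScreen read.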
# % is set by controls: 0 for no effect and ±100 for the full control effect; potency is the fitted concentration of half-maximal effect; tags give direction and shape of the fitted curve.
# Chain of UniProt Q9UIF8 (Q9UIF8 whole entry, looked up, the tested form may be a part): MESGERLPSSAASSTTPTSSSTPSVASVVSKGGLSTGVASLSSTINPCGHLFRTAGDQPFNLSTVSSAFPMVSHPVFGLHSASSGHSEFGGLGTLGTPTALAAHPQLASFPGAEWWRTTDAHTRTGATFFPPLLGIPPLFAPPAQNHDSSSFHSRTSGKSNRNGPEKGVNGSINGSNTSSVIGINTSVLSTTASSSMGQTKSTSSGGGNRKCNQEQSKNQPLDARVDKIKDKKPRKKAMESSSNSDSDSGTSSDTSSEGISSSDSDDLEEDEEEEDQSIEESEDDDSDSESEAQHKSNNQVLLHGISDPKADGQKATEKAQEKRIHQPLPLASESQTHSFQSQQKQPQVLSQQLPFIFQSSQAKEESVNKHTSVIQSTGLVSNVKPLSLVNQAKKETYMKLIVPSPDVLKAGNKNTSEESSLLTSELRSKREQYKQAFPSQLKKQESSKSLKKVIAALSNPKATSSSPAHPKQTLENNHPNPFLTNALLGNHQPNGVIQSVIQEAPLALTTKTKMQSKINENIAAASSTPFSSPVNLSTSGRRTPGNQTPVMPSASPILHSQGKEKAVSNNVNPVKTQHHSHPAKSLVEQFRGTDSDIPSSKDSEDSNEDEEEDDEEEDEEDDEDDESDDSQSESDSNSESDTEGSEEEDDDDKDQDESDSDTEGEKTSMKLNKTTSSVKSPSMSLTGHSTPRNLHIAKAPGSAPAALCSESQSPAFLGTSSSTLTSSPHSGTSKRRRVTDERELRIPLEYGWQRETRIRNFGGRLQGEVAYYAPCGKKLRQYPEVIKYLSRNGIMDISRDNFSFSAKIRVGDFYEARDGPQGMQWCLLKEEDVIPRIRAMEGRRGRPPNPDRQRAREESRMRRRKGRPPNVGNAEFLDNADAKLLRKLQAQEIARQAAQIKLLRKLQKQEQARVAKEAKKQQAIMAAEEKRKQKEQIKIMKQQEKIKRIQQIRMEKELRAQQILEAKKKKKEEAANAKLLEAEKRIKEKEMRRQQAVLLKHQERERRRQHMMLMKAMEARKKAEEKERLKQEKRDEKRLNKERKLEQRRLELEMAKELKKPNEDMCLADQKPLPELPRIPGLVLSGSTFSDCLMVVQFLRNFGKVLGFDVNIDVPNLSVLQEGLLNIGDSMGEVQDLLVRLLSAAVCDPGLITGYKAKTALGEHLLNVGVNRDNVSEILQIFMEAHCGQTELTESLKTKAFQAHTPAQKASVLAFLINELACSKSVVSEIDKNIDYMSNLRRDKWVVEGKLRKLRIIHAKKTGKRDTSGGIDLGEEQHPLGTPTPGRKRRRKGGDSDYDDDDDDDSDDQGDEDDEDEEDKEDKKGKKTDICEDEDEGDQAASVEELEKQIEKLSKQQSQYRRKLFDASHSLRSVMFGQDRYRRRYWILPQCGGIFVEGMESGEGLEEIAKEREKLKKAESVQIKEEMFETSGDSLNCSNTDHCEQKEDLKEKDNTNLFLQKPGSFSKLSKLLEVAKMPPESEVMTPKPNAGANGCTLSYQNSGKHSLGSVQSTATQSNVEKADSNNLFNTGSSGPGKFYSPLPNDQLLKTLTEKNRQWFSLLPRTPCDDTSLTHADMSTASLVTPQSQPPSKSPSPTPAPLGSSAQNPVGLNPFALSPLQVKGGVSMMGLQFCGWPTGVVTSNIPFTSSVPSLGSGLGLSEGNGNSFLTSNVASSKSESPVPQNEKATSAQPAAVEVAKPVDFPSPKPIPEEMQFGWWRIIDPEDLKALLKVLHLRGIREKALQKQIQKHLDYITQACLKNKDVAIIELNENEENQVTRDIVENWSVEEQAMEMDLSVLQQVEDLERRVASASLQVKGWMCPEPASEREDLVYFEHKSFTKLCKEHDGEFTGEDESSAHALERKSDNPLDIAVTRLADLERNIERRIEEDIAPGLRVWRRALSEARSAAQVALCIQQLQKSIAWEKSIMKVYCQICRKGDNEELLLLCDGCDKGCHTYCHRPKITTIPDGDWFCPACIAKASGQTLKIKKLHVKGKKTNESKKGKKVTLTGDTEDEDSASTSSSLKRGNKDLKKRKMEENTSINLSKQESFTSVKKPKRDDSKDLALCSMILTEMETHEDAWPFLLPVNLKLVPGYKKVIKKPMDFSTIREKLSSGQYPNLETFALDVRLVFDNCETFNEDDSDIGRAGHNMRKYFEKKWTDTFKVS
SMILES,Potency,"activity change, negative = inhibition"
CSc1ccc(CN2CCN(C(=O)CC(C)C)CC2)cc1,active: 79.4 µM,
CCN(CC)C(=O)COC(=O)c1ccc(O)cc1,,inactive: 5.8%
N#Cc1c(-c2ccc(Cl)cc2)cc(-c2cccs2)nc1SCC(=O)O,active: 22.4 µM,
CCS(=O)(=O)N1CCc2cc(C(=O)NCc3ccccc3OC)ccc21,"inconclusive: 39.8 µM [inhibitor, partial curve]",
CCOc1ccc(CCNC(=O)C2CCCN(S(=O)(=O)N(C)c3ccc(F)cc3)C2)cc1 (stereo unspecified),,inactive: -10.3%
CN(C)c1ccc(CN(C(=O)COc2ccc(Br)cc2)C2CCS(=O)(=O)C2)cc1 (stereo unspecified),active: 44.7 µM,
Fc1ccccc1NC(=S)N(CCN1CCCCCC1)Cc1cccs1,"inconclusive: 79.4 µM [inhibitor, single point]",
COC(=O)[C@@]1(Cc2ccc(F)cc2)[C@H]2c3cc(C(=O)N(C)C)n(CCc4ccc(OC)c(Br)c4)c3C[C@H]2CN1C(=O)c1ccccc1,"inconclusive: 28.2 µM [inhibitor, full curve, poor fit]",
CC(C)[C@H](NS(=O)(=O)c1cccc(Cl)c1)C(=O)OCC(=O)NC(=O)CN1CCCC1=O,"inconclusive: 89.1 µM [inhibitor, single point]",
COc1ccccc1N/N=C/c1ccc2c(c1)OCO2,"inconclusive: 79.4 µM [inhibitor, single point]",
CCOc1cccc(C2C(C(=O)c3ccc(C)o3)=C(O)C(=O)N2Cc2ccccc2)c1 (stereo unspecified),"inconclusive: 35.5 µM [inhibitor, partial curve]",
O=C(Cn1c2[n+](c3ccc(C(F)(F)F)cc31)CCCCC2)Nc1ccc(Br)cc1,"inconclusive: 89.1 µM [inhibitor, single point]",
O=C(Cc1nnc(NC(=O)c2ccccc2)s1)N/N=C\c1ccc(O)c(O)c1,"inconclusive: 70.8 µM [inhibitor, single point]",
CC(Sc1nccn1C)C(=O)Nc1ccccc1C#N (stereo unspecified),,inactive: -16.1%
COc1cc(/C=N/NC(=O)c2cc(-c3ccco3)nc3ccccc23)cc(OC)c1O,"inconclusive: 79.4 µM [inhibitor, single point]",
CCc1ccc(-c2cc(C)no2)cc1S(=O)(=O)NCCCN1CCN(c2ccccc2)CC1,"inconclusive: 10 µM [inhibitor, full curve]",
Oc1ccc(N=C/C=C/c2ccc(Br)cc2)cc1-c1nc2ccccc2s1,"inconclusive: 79.4 µM [inhibitor, single point]",
CCc1cc2ccc(OC)cc2nc1SCC(=O)N1CCN(C(=O)c2ccco2)CC1,"inconclusive: 79.4 µM [inhibitor, single point]",
Brc1cccc(OCCCCN2CCCCC2)c1,"inconclusive: 89.1 µM [inhibitor, single point]",
Cc1ccc(C)c(NC(=S)/C(=C(\[O-])c2ccc(OC(F)F)cc2)[n+]2ccccc2)c1,"inconclusive: 50.1 µM [inhibitor, partial curve]",
C#CCOCCOCCOCCNc1nc(N2CCN(C(=O)CCCCCCCCCCNC(=O)Cn3cc(C[C@@H](C)O)nn3)CC2)nc(N2CCN(C(=O)CCCCCCCCCCNC(=O)[C@@H]([C@H](C)CC)n3cc(CCCCCN)nn3)CC2)n1,"inconclusive: 50.1 µM [inhibitor, partial curve]",
N#CCCCn1c(O)c(N=NC(=O)C(O)c2ccccc2)c2ccccc21 (stereo unspecified),"inconclusive: 100 µM [inhibitor, partial curve]",

SMILES,Potency,"activity change, negative = inhibition"
CCOc1ccc(NC(=O)c2oc3ccccc3c2NC(=O)COc2cccc(OC)c2)cc1,"inconclusive: 79.4 µM [inhibitor, partial curve]",
CCS(=O)(=O)c1ncc(Cl)c(C(=O)N2CCN(c3ccc(OC)cc3)CC2)n1,,inactive: -16.2%
CCNC(=S)N(CCO)Cc1cc2cc3c(cc2[nH]c1=O)OCO3,"inconclusive: 89.1 µM [inhibitor, single point]",
COC(=O)c1ccccc1NC(=O)c1noc2c1CCC2,active: 50.1 µM,
CC(C)CC(=O)n1sc(NC(=O)c2ccccc2)nc1=O,,inactive: 6.4%
CC(OC(=O)c1ccc(Cl)c([N+](=O)[O-])c1)C(=O)N1CCN(Cc2ccccc2)CC1 (stereo unspecified),,inactive: -11.3%
COC(=O)C1=C(C)N(Cc2ccco2)C(=O)N[C@H]1c1ccc(Br)cc1,"inconclusive: 70.8 µM [inhibitor, single point]",
O=C1NCC(c2ccccc2)C1C(=O)N/N=C\c1ccc(-c2cccc(Cl)c2Cl)o1 (stereo unspecified),"inconclusive: 31.6 µM [inhibitor, partial curve]",
COc1ccc2c(c1)c(=O)c(C(=O)c1ccccc1)cn2CC(=O)Nc1ccc2c(c1)OCO2,"inconclusive: 89.1 µM [inhibitor, single point]",
COc1ccc2c(CNCCc3ccc(SC)cc3)c(C(=O)O)n(Cc3ccc(F)cc3)c2c1,"inconclusive: 25.1 µM [inhibitor, partial curve]",
CC(C)c1ccc(-c2nn[nH]n2)cc1,"inconclusive: 89.1 µM [inhibitor, single point]",
CCCNC(=O)C1CCN(S(=O)(=O)c2cccs2)CC1,,inactive: -2.99%
Cc1ccc(CNC(=O)C2CC(=O)N(C3CCCCCC3)C2)cc1 (stereo unspecified),,inactive: -11.5%
Cc1ccc(C)c(S(=O)(=O)c2c(N)n(/N=C/c3ccco3)c3nc4ccccc4nc23)c1,"inconclusive: 89.1 µM [inhibitor, single point]",
O=C1c2ccccc2-c2onc3c(N4CCN(C5CCCCC5)CC4)cc(NCCO)c1c23,active: 31.6 µM,
O=C(NC1CCCCC1)C(c1ccncc1)N(Cc1ccccc1)C(=O)c1ccc(-c2ccccc2)[nH]1 (stereo unspecified),"inconclusive: 28.2 µM [inhibitor, full curve]",
O=C(/C=C/c1ccccc1)NCCCNC(=O)/C=C/c1ccccc1,,inactive: -23%
CCOC(=O)C1(Cc2cccc(Cl)c2)CCCN(C(=O)CCSC)C1 (stereo unspecified),"inconclusive: 100 µM [inhibitor, single point]",
Cc1cccc(N2CCN(C(=O)Cn3sc4nc(C)cc(C)c4c3=O)CC2C)c1 (stereo unspecified),"inconclusive: 89.1 µM [inhibitor, single point]",
Nc1nc(NCc2ccco2)nc(N2CCOCC2)c1[N+](=O)[O-],,inactive: -12.6%
CCCCNC(=O)c1cc2cccc([N+](=O)[O-])c2[nH]1,"inconclusive: 39.8 µM [inhibitor, partial curve]",
COCCn1c(CN(Cc2ccccc2)Cc2ccccc2)nc2c1c(=O)n(C)c(=O)n2C,"inconclusive: 100 µM [inhibitor, single point]",

SMILES,Potency,"activity change, negative = inhibition"
COc1ccc(/C=N/NC(=O)c2ccc3c(c2)OCO3)cc1,"inconclusive: 89.1 µM [inhibitor, single point]",
O=C(OCc1ccc(O)cc1)c1c(-c2ccsc2)oc2ccc(N3CCOCC3)cc12,,inactive: -0.855%
O=C1C(=O)N(CCOCCO)C(c2ccccn2)/C1=C(\O)c1ccccc1 (stereo unspecified),"inconclusive: 79.4 µM [inhibitor, single point]",
O=C1CCCC(O)=C1N=Nc1ccc(S(=O)(=O)N2CCOCC2)cc1,active: 79.4 µM,
CC(C(=O)N(C)C1CCS(=O)(=O)C1)N1C(=O)/C(=C/c2ccc(F)cc2)SC1=S (stereo unspecified),"inconclusive: 44.7 µM [inhibitor, partial curve]",
CC(C)CN(C(=O)Cn1c(Cl)nc2c1c(=O)n(C)c(=O)n2C)C1CCS(=O)(=O)C1 (stereo unspecified),,inactive: 1.44%
O=C1CCCC2=C1C(c1ccco1)Nc1ccc3ccccc3c12 (stereo unspecified),active: 12.6 µM,
O=c1c2ccccc2n2c(=S)[nH]nc2n1-c1ccccc1,"inconclusive: 89.1 µM [inhibitor, single point]",
CSC[C@H](NC(=O)COc1cc2c(c3oc(=O)c(C)c(C)c13)CCC(C)(C)O2)C(=O)O,,inactive: -5.2%
[O-]/C(=C(\C(=S)Nc1cccc2ccccc12)[n+]1ccccc1)c1ccc(OC(F)F)cc1,active: 35.5 µM,
O=[N+]([O-])c1cccc(C2CC(c3ccccc3)=NN2c2ccccc2)c1 (stereo unspecified),"inconclusive: 31.6 µM [inhibitor, full curve]",
CCn1cc(CN2CCc3c([nH]c4ccccc34)C2c2cccc(OC)c2OC)c(C)n1 (stereo unspecified),"inconclusive: 22.4 µM [inhibitor, full curve]",
C/C=C(/C(=C/C)c1ccc(O)cc1)c1ccc(O)cc1,"inconclusive: 79.4 µM [inhibitor, single point]",
O=C(O)c1ccc(S(=O)(=O)c2ccc3c(c2)C(=O)N(c2ccc(Br)cc2)C3=O)cc1,"inconclusive: 70.8 µM [inhibitor, single point]",
CCNc1ccc(S(=O)(=O)N(C)C)cc1NCC(=O)Nc1ccc(Br)cc1F,"inconclusive: 44.7 µM [inhibitor, partial curve]",
CC[C@@]12C(=O)N(c3cccc(F)c3)C(=O)N1[C@H](c1ccc(F)cc1)[C@@H]1C(=O)N(C3CCCCC3)C(=O)[C@@H]12,"inconclusive: 89.1 µM [inhibitor, single point]",
CCn1c(CN2CCN(c3ccc(Cl)cc3)CC2)nc2ccccc21,"inconclusive: 70.8 µM [inhibitor, single point]",
COC(=O)c1ccc(NN=Nc2ccc(C)cc2)cc1,"inconclusive: 89.1 µM [inhibitor, single point]",
COc1ccc(NC(=O)COC(=O)C2CC2)c(OC)c1,,inactive: -5.34%
O=[N+]([O-])c1ccc([N+](=O)[O-])c(Nc2ccc(N3CCOCC3)cc2)c1,active: 17.8 µM,
COc1ccc(NC(=O)CCC2CCCCC2)cc1S(=O)(=O)N1CCCCC1,,inactive: -10.5%
COc1ccc(-c2cc3cc(OC)c(OC)cc3c(C)n2)cc1,"inconclusive: 89.1 µM [inhibitor, single point]",

# Reference: PubChem BioAssay AID504333 (National Center for Advancing Translational Sciences (NCATS), 2011)
